The values that follow come from PMC6212790.

This is one part of the list. At the low end of the ranking, values are background and their order means little.

The target of this experiment is T1, GST-Rok-C97-191 (UniProt O34857).
T1 sequence: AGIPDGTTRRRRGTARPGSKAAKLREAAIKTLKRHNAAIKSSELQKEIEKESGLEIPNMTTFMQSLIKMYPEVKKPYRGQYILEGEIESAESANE
The experiment is described as follows: protein binding microarray.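 Note: rank score from −0.5 (least bound) to 0.5 (best bound).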 To be noted: Rok is a gene silencer of Bacillus subtilis; high values mean tight binding; most listed sequences are background and not binding sites; double strand, one strand shown.
In turn, AATTCCAA registered a binding signal of 0.0704 E-score.
For the sequence TGCTAAAA, the binding signal amounted to 0.177 E-score.
With GCAAATCC, the binding signal was -0.0218 E-score.
AGGGCCCA showed a binding signal of -0.232 E-score.
As for TAATTCCA, the binding signal amounted to 0.207 E-score.
Sequence AGCTCTCC had a binding signal of -0.194 E-score.
AAAGTTCG registered a binding signal of 0.0847 E-score.
CTTACAGC displayed a binding signal of 0.0847 E-score.
As for ATTCTAGA, the binding signal was 0.245 E-score.
AGATACAA showed a binding signal of 0.243 E-score.
AGGGACAC yielded a binding signal of -0.294 E-score.
Turning to AACGCCTT, the binding signal was -0.0323 E-score.
The figure for ATGTAGGA is 0.201 E-score.
In turn, AGGAATTG yielded a binding signal of 0.187 E-score.
The figure for ACTACTAC is 0.419 E-score.
For the sequence GTACTGGA, the binding signal was -0.0299 E-score.
As to AATGCGAT, the binding signal was 0.0443 E-score.
TTAGGCAA returned a binding signal of -0.13 E-score.
Consider AGCCACGA, for which the binding signal is -0.0279 E-score.
With TAACTTAA, the binding signal was found to be 0.182 E-score.
In turn, AATGTGCG registered a binding signal of -0.0696 E-score.
Under CTTCCTTC stands -0.24 E-score; under AAGTACAA, 0.349 E-score.
Under GCTCCCCC stands -0.388 E-score.
Take CATACTCC: the binding signal is -0.0538 E-score.
Consider CTCGGGAC, for which the binding signal is -0.0122 E-score.
Under CAGACTGG stands -0.192 E-score; under AAACCATA, 0.152 E-score.
GTGAACCA yielded a binding signal of -0.0676 E-score.
ACAGGGGT: the binding signal worked out at 0.0522 E-score.
The figure for CTTTCAGA is -0.128 E-score; for AGTGAAAA it is 0.0326 E-score; for ATCCGCCG it is -0.183 E-score.
Under CTCCGGGC stands -0.249 E-score; under AGGATCTG, -0.208 E-score.
Turning to ACTGATGA, the binding signal was -0.147 E-score.
For the sequence CGTCGCAG, the binding signal was -0.0739 E-score.
GGAGGCCA yielded a binding signal of -0.274 E-score.
The sequence GACGAGGA had a binding signal of -0.147 E-score.
The sequence AGTTGTTC had a binding signal of 0.0102 E-score.
For the sequence AACAAAAT, the binding signal was found to be 0.158 E-score.
CTAGAGCA displayed a binding signal of -0.0383 E-score.
GAAGTCCC: the binding signal is -0.215 E-score.
The sequence GTGCCAAC registered a binding signal of 0.0115 E-score.
GGGGGGTA yielded a binding signal of -0.168 E-score.
Sequence GAAACGTA had a binding signal of 0.139 E-score.
Regarding GAATGGTA, the binding signal is 0.39 E-score.
AGCGCAGG showed a binding signal of -0.149 E-score.
For the sequence ATGAGGGG, the binding signal was -0.214 E-score.
GCTGTCAA registered a binding signal of -0.08 E-score.
The figure for ACTTATAG is 0.271 E-score; for GCCTTTAC it is -0.187 E-score.
Regarding ACCATTCT, the binding signal is -0.0541 E-score.
Under AAGAAATA stands 0.145 E-score; under GACCCATA, 0.0216 E-score.
As for AAAGGAGG, the binding signal is -0.128 E-score.
The sequence GCTGGCCC had a binding signal of -0.249 E-score.
In the case of TGAAATCA, the binding signal amounted to 0.00701 E-score.
The figure for CAGCTGTA is 0.0433 E-score; for CTAGAGAC it is 0.0353 E-score; for CTCGGACC it is -0.297 E-score.
As for AGAACTTA, the binding signal came out at 0.0838 E-score.
As for AAGACTAG, the binding signal amounted to 0.222 E-score.
Turning to AATACAGT, the binding signal turned out to be 0.123 E-score.
Turning to AGTTGTTA, the binding signal came to 0.201 E-score.
Under ATTTACTA stands 0.439 E-score; under GCTCAGCA, -0.187 E-score; under AGCGGCAT, 0.0357 E-score.
Take CGATAAAA: the binding signal stood at 0.202 E-score.
AATTTTAT yielded a binding signal of 0.316 E-score.
For the sequence AGAATATC, the binding signal was 0.285 E-score.
On to GCGGCCCA, for which the binding signal is -0.281 E-score.
The figure for ACTCTGTC is -0.0445 E-score; for ATGACCCG it is -0.225 E-score; for AATGCACA it is 0.0473 E-score.
Consider CCTGGTAC, for which the binding signal was -0.148 E-score.
Regarding CCTCTCTA, the binding signal was -0.109 E-score.
The figure for TCATAGCA is 0.147 E-score.
Take CCAACTCG: the binding signal is -0.0471 E-score.
Regarding CCATTTCG, the binding signal came to 0.109 E-score.
CCATATTA returned a binding signal of 0.121 E-score.
Take CACGCGCA: the binding signal is -0.0772 E-score.
ATAGCCTG came in with a binding signal of 0.0234 E-score.
TAAAGTGA: the binding signal is -0.138 E-score.
In turn, CGCATCTA displayed a binding signal of 0.0383 E-score.
Take ACCTTACG: the binding signal turned out to be 0.0462 E-score.
As for ACGATAAA, the binding signal came out at 0.161 E-score.
For TATATACA, the binding signal is 0.402 E-score.
GTATTAAC yielded a binding signal of 0.252 E-score.
The sequence TAGTTCGA returned a binding signal of 0.322 E-score.
Sequence CATATCGC yielded a binding signal of -0.000637 E-score.
Under AGTGGCAA stands 0.0513 E-score; under AAACCGTG, 0.0264 E-score.
CACAAGCC: the binding signal was -0.284 E-score.
In turn, CGACGAAG came in with a binding signal of -0.103 E-score.
Regarding CAAAGTCC, the binding signal was -0.127 E-score.
Sequence AAGCGCCC had a binding signal of -0.123 E-score.
The sequence AATGACTC came in with a binding signal of -0.0437 E-score.
With AGACGCTA, the binding signal was determined as 0.165 E-score.
AAAGCCGC showed a binding signal of -0.276 E-score.
Sequence CAAATGAC returned a binding signal of 0.00642 E-score.
The sequence GCTAGGAA showed a binding signal of -0.0616 E-score.
CATGCAGC gave a binding signal of -0.226 E-score.
For the sequence GTCGCTGA, the binding signal is -0.175 E-score.
Sequence GCAGGTTA had a binding signal of -0.105 E-score.
The figure for AAAGGACG is -0.25 E-score; for CAGGAATC it is -0.251 E-score.
On to AACCCTGC, for which the binding signal is -0.259 E-score.
Turning to GCCGAACA, the binding signal is -0.278 E-score.
In turn, ACATTTAC had a binding signal of 0.315 E-score.
